Source: the supplement of paper PMC11876631
± gives the standard deviation of the averaged measurements. Laboratory Escherichia coli strains with one amino-acid change in an essential protein, pooled on minimal glucose agar with carbenicillin or gentamicin at twice the control MIC (plus kanamycin and chloramphenicol for the plasmids), 48 h. Fold change of barcode share against drug-free plates; higher = less susceptible. Active = above 20 in both replicates (the paper's putatively resistant). '<' = one read or none on drug, '>' = one read or none on a drug-free plate. Shares are relative, so most strains fall below 1 when a few take over. Listed are strains with at least 15 reads on both drug-free plates, and hits; most hits rest on fewer reference reads. Replicate rank correlation about 0.5. Edits are read from barcodes.

Target: Escherichia coli (laboratory strain)
Experiment: barcode share on antibiotic plates over drug-free plates; higher = less susceptible
Experimental: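 A pool of E. coli strains, each edited to carry one amino-acid change in an essential protein, was grown for 48 h on minimal glucose agar with or without antibiotic; strain barcodes were sequenced; mean of two replicates.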

[1] = antibiotic: carbenicillin, 2× MIC (3.1 µg/mL)
[2] = antibiotic: gentamicin, 2× MIC (MIC 0.45 µg/mL)

Row | Protein | fold change of barcode share [1] | fold change of barcode share [2]
1 | carA I110A (protein) MIKSALLVLEDGTQFHGRAIGATGSAVGEVVFNTSMTGYQEILTDPSYSRQIVTLTYPHIGNVGTNDADEESSQVHAQGLVIRDLPLIASNFRNTEDLSSYLKRHNIVAAADIDTRKLTRLLREKGAQNGCIIAGDNPDAALALEKARAFPGLNGMDLAKEVTTAEAYSWTQGSWTLTGGLPEAKKEDELPFHVVAYDFGAKRNILRMLVDRGCRLTIVPAQTSAEDVLKMNPDGIFLSNGPGDPAPCDYAITAIQKFLETDIPVFGICLGHQLLALASGAKTVKMKFGHHGGNHPVKDVEKNVVMITAQNHGFAVDEATLPANLRVTHKSLFDGTLQGIHRTDKPAFSFQGHPEASPGPHDAAPLFDHFIELIEQYRKTAK | 0.115 ± 0.055 | 
2 | carA L216Q (protein) MIKSALLVLEDGTQFHGRAIGATGSAVGEVVFNTSMTGYQEILTDPSYSRQIVTLTYPHIGNVGTNDADEESSQVHAQGLVIRDLPLIASNFRNTEDLSSYLKRHNIVAIADIDTRKLTRLLREKGAQNGCIIAGDNPDAALALEKARAFPGLNGMDLAKEVTTAEAYSWTQGSWTLTGGLPEAKKEDELPFHVVAYDFGAKRNILRMLVDRGCRQTIVPAQTSAEDVLKMNPDGIFLSNGPGDPAPCDYAITAIQKFLETDIPVFGICLGHQLLALASGAKTVKMKFGHHGGNHPVKDVEKNVVMITAQNHGFAVDEATLPANLRVTHKSLFDGTLQGIHRTDKPAFSFQGHPEASPGPHDAAPLFDHFIELIEQYRKTAK | 0.322 ± 0.026 | 0.00278 ± 0.001
3 | carA L216W (protein) MIKSALLVLEDGTQFHGRAIGATGSAVGEVVFNTSMTGYQEILTDPSYSRQIVTLTYPHIGNVGTNDADEESSQVHAQGLVIRDLPLIASNFRNTEDLSSYLKRHNIVAIADIDTRKLTRLLREKGAQNGCIIAGDNPDAALALEKARAFPGLNGMDLAKEVTTAEAYSWTQGSWTLTGGLPEAKKEDELPFHVVAYDFGAKRNILRMLVDRGCRWTIVPAQTSAEDVLKMNPDGIFLSNGPGDPAPCDYAITAIQKFLETDIPVFGICLGHQLLALASGAKTVKMKFGHHGGNHPVKDVEKNVVMITAQNHGFAVDEATLPANLRVTHKSLFDGTLQGIHRTDKPAFSFQGHPEASPGPHDAAPLFDHFIELIEQYRKTAK | 0.372 ± 0.2 | 0.0046 ± 0.00039
4 | carA L216P (protein) MIKSALLVLEDGTQFHGRAIGATGSAVGEVVFNTSMTGYQEILTDPSYSRQIVTLTYPHIGNVGTNDADEESSQVHAQGLVIRDLPLIASNFRNTEDLSSYLKRHNIVAIADIDTRKLTRLLREKGAQNGCIIAGDNPDAALALEKARAFPGLNGMDLAKEVTTAEAYSWTQGSWTLTGGLPEAKKEDELPFHVVAYDFGAKRNILRMLVDRGCRPTIVPAQTSAEDVLKMNPDGIFLSNGPGDPAPCDYAITAIQKFLETDIPVFGICLGHQLLALASGAKTVKMKFGHHGGNHPVKDVEKNVVMITAQNHGFAVDEATLPANLRVTHKSLFDGTLQGIHRTDKPAFSFQGHPEASPGPHDAAPLFDHFIELIEQYRKTAK | 0.408 ± 0.045 | 0.0095 ± 0.0018
5 | carA L216D (protein) MIKSALLVLEDGTQFHGRAIGATGSAVGEVVFNTSMTGYQEILTDPSYSRQIVTLTYPHIGNVGTNDADEESSQVHAQGLVIRDLPLIASNFRNTEDLSSYLKRHNIVAIADIDTRKLTRLLREKGAQNGCIIAGDNPDAALALEKARAFPGLNGMDLAKEVTTAEAYSWTQGSWTLTGGLPEAKKEDELPFHVVAYDFGAKRNILRMLVDRGCRDTIVPAQTSAEDVLKMNPDGIFLSNGPGDPAPCDYAITAIQKFLETDIPVFGICLGHQLLALASGAKTVKMKFGHHGGNHPVKDVEKNVVMITAQNHGFAVDEATLPANLRVTHKSLFDGTLQGIHRTDKPAFSFQGHPEASPGPHDAAPLFDHFIELIEQYRKTAK | 0.524 ± 0.38 | 0.036 ± 0.023
6 | carA L216A (protein) MIKSALLVLEDGTQFHGRAIGATGSAVGEVVFNTSMTGYQEILTDPSYSRQIVTLTYPHIGNVGTNDADEESSQVHAQGLVIRDLPLIASNFRNTEDLSSYLKRHNIVAIADIDTRKLTRLLREKGAQNGCIIAGDNPDAALALEKARAFPGLNGMDLAKEVTTAEAYSWTQGSWTLTGGLPEAKKEDELPFHVVAYDFGAKRNILRMLVDRGCRATIVPAQTSAEDVLKMNPDGIFLSNGPGDPAPCDYAITAIQKFLETDIPVFGICLGHQLLALASGAKTVKMKFGHHGGNHPVKDVEKNVVMITAQNHGFAVDEATLPANLRVTHKSLFDGTLQGIHRTDKPAFSFQGHPEASPGPHDAAPLFDHFIELIEQYRKTAK | 0.3 ± 0.092 | 0.00457 ± 0.0028
7 | trpC L235W (protein) MMQTVLAKIVADKAIWVEARKQQQPLASFQNEVQPSTRHFYDALQGARTAFILECKKASPSKGVIRDDFDPARIAAIYKHYASAISVLTDEKYFQGSFNFLPIVSQIAPQPILCKDFIIDPYQIYLARYYQADACLLMLSVLDDDQYRQLAAVAHSLEMGVLTEVSNEEEQERAIALGAKVVGINNRDLRDLSIDLNRTRELAPKLGHNVTVISESGINTYAQVRELSHFANGFWIGSALMAHDDLHAAVRRVLLGENKVCGLTRGQDAKAAYDAGAIYGGLIFVATSPRCVNVEQAQEVMAAAPLQYVGVFRNHDIADVVDKAKVLSLAAVQLHGNEEQLYIDTLREALPAHVAIWKALSVGETLPAREFQHVDKYVLDNGQGGSGQRFDWSLLNGQSLGNVLLAGGLGADNCVEAAQTGCAGLDFNSAVESQPGIKDARLLASVFQTLRAY | > 27.8 [active] | 
8 | tsaD V131D (protein) MRVLGIETSCDETGIAIYDDEKGLLANQLYSQVKLHADYGGVVPELASRDHVRKTVPLIQAALKESGLTAKDIDAVAYTAGPGLVGALLVGATVGRSLAFAWDVPAIPVHHMEGHLLAPMLEDNPPEFPFDALLVSGGHTQLISVTGIGQYELLGESIDDAAGEAFDKTAKLLGLDYPGGPLLSKMAAQGTAGRFVFPRPMTDRPGLDFSFSGLKTFAANTIRDNGTDDQTRADIARAFEDAVVDTLMIKCKRALDQTGFKRLVMAGGVSANRTLRAKLAEMMKKRRGEVFYARPEFCTDNGAMIAYAGMVRFKAGATADLGVSVRPRWPLAELPAA | 0.267 ± 0.19 | < 0.0156
9 | tsaD L133Q (protein) MRVLGIETSCDETGIAIYDDEKGLLANQLYSQVKLHADYGGVVPELASRDHVRKTVPLIQAALKESGLTAKDIDAVAYTAGPGLVGALLVGATVGRSLAFAWDVPAIPVHHMEGHLLAPMLEDNPPEFPFVAQLVSGGHTQLISVTGIGQYELLGESIDDAAGEAFDKTAKLLGLDYPGGPLLSKMAAQGTAGRFVFPRPMTDRPGLDFSFSGLKTFAANTIRDNGTDDQTRADIARAFEDAVVDTLMIKCKRALDQTGFKRLVMAGGVSANRTLRAKLAEMMKKRRGEVFYARPEFCTDNGAMIAYAGMVRFKAGATADLGVSVRPRWPLAELPAA | 0.217 ± 0.15 | < 0.0174
10 | tsaD L133A (protein) MRVLGIETSCDETGIAIYDDEKGLLANQLYSQVKLHADYGGVVPELASRDHVRKTVPLIQAALKESGLTAKDIDAVAYTAGPGLVGALLVGATVGRSLAFAWDVPAIPVHHMEGHLLAPMLEDNPPEFPFVAALVSGGHTQLISVTGIGQYELLGESIDDAAGEAFDKTAKLLGLDYPGGPLLSKMAAQGTAGRFVFPRPMTDRPGLDFSFSGLKTFAANTIRDNGTDDQTRADIARAFEDAVVDTLMIKCKRALDQTGFKRLVMAGGVSANRTLRAKLAEMMKKRRGEVFYARPEFCTDNGAMIAYAGMVRFKAGATADLGVSVRPRWPLAELPAA | 0.192 ± 0.021 | < 0.0172
11 | tsaD L133D (protein) MRVLGIETSCDETGIAIYDDEKGLLANQLYSQVKLHADYGGVVPELASRDHVRKTVPLIQAALKESGLTAKDIDAVAYTAGPGLVGALLVGATVGRSLAFAWDVPAIPVHHMEGHLLAPMLEDNPPEFPFVADLVSGGHTQLISVTGIGQYELLGESIDDAAGEAFDKTAKLLGLDYPGGPLLSKMAAQGTAGRFVFPRPMTDRPGLDFSFSGLKTFAANTIRDNGTDDQTRADIARAFEDAVVDTLMIKCKRALDQTGFKRLVMAGGVSANRTLRAKLAEMMKKRRGEVFYARPEFCTDNGAMIAYAGMVRFKAGATADLGVSVRPRWPLAELPAA | 0.295 ± 0.21 | < 0.0106
12 | can M152A (protein) MKDIDTLISNNALWSKMLVEEDPGFFEKLAQAQKPRFLWIGCSDSRVPAERLTGLEPGELFVHRNVANLVIHTDLNCLSVVQYAVDVLEVEHIIICGHYGCGGVQAAVENPELGLINNWLLHIRDIWFKHSSLLGEMPQERRLDTLCELNVAEQVYNLGHSTIMQSAWKRGQKVTIHGWAYGIHDGLLRDLDVTATNRETLEQRYRHGISNLKLKHANHK | 0.333 ± 0.11 | 0.0113 ± 0.011
13 | can L69A (protein) MKDIDTLISNNALWSKMLVEEDPGFFEKLAQAQKPRFLWIGCSDSRVPAERLTGLEPGELFVHRNVANAVIHTDLNCLSVVQYAVDVLEVEHIIICGHYGCGGVQAAVENPELGLINNWLLHIRDIWFKHSSLLGEMPQERRLDTLCELNVMEQVYNLGHSTIMQSAWKRGQKVTIHGWAYGIHDGLLRDLDVTATNRETLEQRYRHGISNLKLKHANHK | 0.78 ± 0.46 | < 0.00989
